# Results as given in the supplement of paper PMC8728848.
# Some of the results follow.
# B1: BC2L-D C-terminal domain (Burkholderia cenocepacia), Q39MQ9_BURS3 (protein)
# chain: LVIVDAVTLLSAYPEASRDPAAPTVIDGRHLYVVSPGDAAQLGHNDSRLFTGLSPGDQLHLRETALALRAEVSVLFIRFALKDAGIVAPIELEVRDAATAVPDADDLLHPSCRPLKDHYWRSDVLAAGATTCTADFAVCDRDGTVSGYFRWETSIEIAGSQPDTKQPGFKPSSDRNGNFSLPPNTAFKAIFYANAADRQDLKLFIDDAPEPAATFVGNSEDGVRLFTLNSKGGKIRIEASANGRQSATDARLAPLSAGDTVWLGWLGAEDGADADYNDGIVILQWPIT
# Legend:
# Assay in all cases: glycan array binding signal (z-score within array); higher = stronger binding
# Conditions in all cases: glycan notation: IUPAC condensed, linker removed
# Fuc(a1-2)Gal6S(b1-4)Glc = target: Fuc(a1-2)Gal6S(b1-4)Glc
# Outline: (§1)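 Negative Z-scores can be read as non-binding. The Z-score is calculated within each array and then averaged across arrays of one protein sequence at different concentrations or buffers and across linkers. Arrays, 3228 in all, were curated from the Consortium for Functional Glycomics database and kept only where the protein sequence was available.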
# [1] = target: Fuc(a1-2)Gal6S(b1-4)Glc6S
# Outline: as §1
# [2] = target: Fuc(a1-2)Gal6S(b1-4)GlcNAc
# Outline: as §1
# Fuc(a1-2)[Gal(a1-3)]Gal = target: Fuc(a1-2)[Gal(a1-3)]Gal
# Outline: as §1
# [3] = target: Fuc(a1-2)[Gal(a1-3)]Gal(b1-3)GalNAc
# Outline: as §1
# [4] = target: Fuc(a1-2)[Gal(a1-3)]Gal(b1-3)GlcNAc
# Outline: as §1
# [5] = target: Fuc(a1-2)[Gal(a1-3)]Gal(b1-3)GlcNAc(b1-2)Man(a1-3)[Fuc(a1-2)[Gal(a1-3)]Gal(b1-3)GlcNAc(b1-2)Man(a1-6)]Man(b1-4)GlcNAc(b1-4)GlcNAc
# Outline: as §1
# [6] = target: Fuc(a1-2)[Gal(a1-3)]Gal(b1-3)GlcNAc(b1-2)Man(a1-3)[Fuc(a1-2)[Gal(a1-3)]Gal(b1-3)GlcNAc(b1-2)Man(a1-6)]Man(b1-4)GlcNAc(b1-4)[Fuc(a1-6)]GlcNAc
# Outline: as §1
# [7] = target: Fuc(a1-2)[Gal(a1-3)]Gal(b1-3)GlcNAc(b1-3)GalNAc
# Outline: as §1
# [8] = target: Fuc(a1-2)[Gal(a1-3)]Gal(b1-4)Glc
# Outline: as §1
# [9] = target: Fuc(a1-2)[Gal(a1-3)]Gal(b1-4)GlcNAc
# Outline: as §1
# [10] = target: Fuc(a1-2)[Gal(a1-3)]Gal(b1-4)GlcNAc(b1-2)Man(a1-3)[Fuc(a1-2)[Gal(a1-3)]Gal(b1-4)GlcNAc(b1-2)Man(a1-6)]Man(b1-4)GlcNAc(b1-4)GlcNAc
# Outline: as §1
# [11] = target: Fuc(a1-2)[Gal(a1-3)]Gal(b1-4)GlcNAc(b1-2)Man(a1-3)[Fuc(a1-2)[Gal(a1-3)]Gal(b1-4)GlcNAc(b1-2)Man(a1-6)]Man(b1-4)GlcNAc(b1-4)[Fuc(a1-6)]GlcNAc
# Outline: as §1
# [12] = target: Fuc(a1-2)[Gal(a1-3)]Gal(b1-4)GlcNAc(b1-3)GalNAc
# Outline: as §1
# [13] = target: Fuc(a1-2)[Gal(a1-3)]Gal(b1-4)[Fuc(a1-3)]Glc
# Outline: as §1
# [14] = target: Fuc(a1-2)[Gal(a1-3)]Gal(b1-4)[Fuc(a1-3)]GlcNAc
# Outline: as §1
# [15] = target: Fuc(a1-2)[Gal(a1-3)]Gal(b1-4)[Fuc(a1-3)]GlcNAc(b1-3)GalNAc
# Outline: as §1
# [16] = target: Fuc(a1-2)[Gal(a1-4)]Gal(b1-4)GlcNAc
# Outline: as §1
# [17] = target: Fuc(a1-2)[GalNAc(a1-3)]Gal
# Outline: as §1
# [18] = target: Fuc(a1-2)[GalNAc(a1-3)]Gal(b1-3)GalNAc(a1-3)[Fuc(a1-2)]Gal(b1-4)GlcNAc
# Outline: as §1
# [19] = target: Fuc(a1-2)[GalNAc(a1-3)]Gal(b1-3)GlcNAc
# Outline: as §1
# [20] = target: Fuc(a1-2)[GalNAc(a1-3)]Gal(b1-3)GlcNAc(b1-2)Man(a1-3)[Fuc(a1-2)[GalNAc(a1-3)]Gal(b1-3)GlcNAc(b1-2)Man(a1-6)]Man(b1-4)GlcNAc(b1-4)GlcNAc
# Outline: as §1
# [21] = target: Fuc(a1-2)[GalNAc(a1-3)]Gal(b1-3)GlcNAc(b1-2)Man(a1-3)[Fuc(a1-2)[GalNAc(a1-3)]Gal(b1-3)GlcNAc(b1-2)Man(a1-6)]Man(b1-4)GlcNAc(b1-4)[Fuc(a1-6)]GlcNAc
# Outline: as §1
# [22] = target: Fuc(a1-2)[GalNAc(a1-3)]Gal(b1-3)GlcNAc(b1-3)GalNAc
# Outline: as §1
# [23] = target: Fuc(a1-2)[GalNAc(a1-3)]Gal(b1-4)Glc
# Outline: as §1
# [24] = target: Fuc(a1-2)[GalNAc(a1-3)]Gal(b1-4)GlcNAc
# Outline: as §1
# [25] = target: Fuc(a1-2)[GalNAc(a1-3)]Gal(b1-4)GlcNAc(b1-2)Man(a1-3)[Fuc(a1-2)[GalNAc(a1-3)]Gal(b1-4)GlcNAc(b1-2)Man(a1-6)]Man(b1-4)GlcNAc(b1-4)GlcNAc
# Outline: as §1
# [26] = target: Fuc(a1-2)[GalNAc(a1-3)]Gal(b1-4)GlcNAc(b1-2)Man(a1-3)[Fuc(a1-2)[GalNAc(a1-3)]Gal(b1-4)GlcNAc(b1-2)Man(a1-6)]Man(b1-4)GlcNAc(b1-4)[Fuc(a1-6)]GlcNAc
# Outline: as §1
# [27] = target: Fuc(a1-2)[GalNAc(a1-3)]Gal(b1-4)GlcNAc(b1-2)Man(a1-3)[GalNAc(a1-3)[Fuc(a1-2)]Gal(b1-4)GlcNAc(b1-2)Man(a1-6)]Man(b1-4)GlcNAc(b1-4)GlcNAc
# Outline: as §1
# [28] = target: Fuc(a1-2)[GalNAc(a1-3)]Gal(b1-4)GlcNAc(b1-3)Gal(b1-4)GlcNAc
# Outline: as §1
# [29] = target: Fuc(a1-2)[GalNAc(a1-3)]Gal(b1-4)GlcNAc(b1-3)Gal(b1-4)GlcNAc(b1-3)Gal(b1-4)GlcNAc
# Outline: as §1
# [30] = target: Fuc(a1-2)[GalNAc(a1-3)]Gal(b1-4)GlcNAc(b1-3)GalNAc
# Outline: as §1
# [31] = target: Fuc(a1-2)[GalNAc(a1-3)]Gal(b1-4)[Fuc(a1-3)]GlcNAc
# Outline: as §1
# [32] = target: Fuc(a1-2)[GalNAc(a1-3)]Gal(b1-4)[Fuc(a1-3)]GlcNAc(b1-3)GalNAc
# Outline: as §1
# [33] = target: Fuc(a1-2)[GalNAc(a1-4)]Gal(b1-4)GlcNAc
# Outline: as §1
# [34] = target: Fuc(a1-2)[GalNAc(b1-3)]Gal
# Outline: as §1
# Fuc(a1-3)GlcNAc = target: Fuc(a1-3)GlcNAc
# Outline: as §1
# [35] = target: Fuc(a1-3)[Gal(b1-4)]Glc6S
# Outline: as §1
binder,measurement,setting,value
B1,glycan array binding signal (z-score),Fuc(a1-2)Gal6S(b1-4)Glc,-0.165
same,glycan array binding signal (z-score),[1],-0.15
same,glycan array binding signal (z-score),[2],-0.158
same,glycan array binding signal (z-score),Fuc(a1-2)[Gal(a1-3)]Gal,-0.243
same,glycan array binding signal (z-score),[3],-0.161
same,glycan array binding signal (z-score),[4],-0.18
same,glycan array binding signal (z-score),[5],0.549
same,glycan array binding signal (z-score),[6],0.296
same,glycan array binding signal (z-score),[7],-0.17
same,glycan array binding signal (z-score),[8],-0.243
same,glycan array binding signal (z-score),[9],-0.243
same,glycan array binding signal (z-score),[10],-0.167
same,glycan array binding signal (z-score),[11],0.051
same,glycan array binding signal (z-score),[12],-0.161
same,glycan array binding signal (z-score),[13],-0.166
same,glycan array binding signal (z-score),[14],-0.104
same,glycan array binding signal (z-score),[15],-0.158
same,glycan array binding signal (z-score),[16],-0.194
same,glycan array binding signal (z-score),[17],-0.238
same,glycan array binding signal (z-score),[18],-0.169
same,glycan array binding signal (z-score),[19],-0.229
same,glycan array binding signal (z-score),[20],-0.129
same,glycan array binding signal (z-score),[21],0.417
same,glycan array binding signal (z-score),[22],-0.163
same,glycan array binding signal (z-score),[23],-0.244
same,glycan array binding signal (z-score),[24],-0.244
same,glycan array binding signal (z-score),[25],-0.153
same,glycan array binding signal (z-score),[26],0.161
same,glycan array binding signal (z-score),[27],-0.237
same,glycan array binding signal (z-score),[28],-0.242
same,glycan array binding signal (z-score),[29],-0.232
same,glycan array binding signal (z-score),[30],-0.163
same,glycan array binding signal (z-score),[31],-0.209
same,glycan array binding signal (z-score),[32],-0.159
same,glycan array binding signal (z-score),[33],-0.166
same,glycan array binding signal (z-score),[34],-0.242
same,glycan array binding signal (z-score),Fuc(a1-3)GlcNAc,-0.007
same,glycan array binding signal (z-score),[35],-0.211
